Measured values reported in PubChem BioAssay (NCI).
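In this assay, cells in 96-well plates receive the compound at five concentrations for 48 hours. Endpoints are linearly interpolated between the surrounding concentrations. GI50 is the concentration that inhibits growth by half. TGI: total growth inhibition.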 Square brackets hold non-standard residues; d marks the D form. Peptide text beside a SMILES is read from it. * marks the point of attachment. Bn2Val = CC(C)[C@@H](C(=O)*)N(Cc1ccccc1)Cc1ccccc1; NMeV = CN[C@H](C(=O)O)C(C)C; X25 = COc1ccc(CN*)c(OC)c1; dNMeA = CN[C@H](C)C(=O)O; Boc = CC(C)(C)OC(=O)*; OBn = c1ccc(CO*)cc1

test system: NCI-H322M lung; experiment: NCI anticancer screen, dose series, 48 h

SMILES | GI50 [µM] | TGI [µM]
CCOc1ccc2c(c1)C(=O)c1c-2n(CCCBr)c(=O)c2cc([N+](=O)[O-])ccc12 | 44 | > 100
CC(C)CC(NC(=O)OC(C)(C)C)C(=O)NC(CC(=O)OCc1ccccc1)C(=O)OCc1ccccc1 (stereo not drawn) (Boc-Leu-Asp(OBn)-OBn; configuration not given here) | – | > 100
Cc1nnc2n(c1=O)CCN2C | – | > 100
O=C1C[C@@H]2[C@@H](CCC23CC3)N1 | – | > 100
Cc1nc2n(c1/C=C1/C(=O)Nc3ccccc31)CCS2 | – | > 100
N#C/C(=C\c1cccc(O)c1O)C(N)=O | – | > 100
CN(C)c1ccc(/C=C/C(=O)N[C@@H]2C(=O)N3[C@@H]2SC(C)(C)[C@@H]3C(=O)O)cc1 | – | > 100
COC(=O)NNC(c1ccc(Cl)cc1)c1ccc(Cl)cc1 | – | 36
COc1cccc(CN(C)c2ccc(CO)c(Cl)c2)c1 | 14.9 | 86.6
C=C/C(C)=C/C[C@]1(C)[C@H](C)[C@@H](OC(=O)CCC)[C@H](O)[C@@]23C(=C[C@H](OC)C[C@@H]12)[C@@H](OC(=O)CCC)O[C@H]3OC(C)=O | 1.67 | 3.8
COc1ccc(CNC(=O)[C@@H]2CCCN2C(=O)[C@@H](C)N(C)C(=O)[C@H](C(C)C)N(C)C(=O)[C@@H](NC(=O)[C@H](C(C)C)N(Cc2ccccc2)Cc2ccccc2)C(C)C)c(OC)c1 (Bn2Val-V[NMeV][dNMeA]P-X25) | – | 12
O=c1c2ccccc2nc(-c2ccccc2)n1NC(=S)Nc1ccc(Cl)cc1 | – | > 100
NC(=O)c1cc(N(CCO)CCO)c([N+](=O)[O-])cc1[N+](=O)[O-] | – | > 100
CN(C(=O)c1ccc2c(c1)sc1c(=O)n(C)c3ccccc3c12)c1ccccc1 | – | > 100
COc1ccccc1N=Nc1c(O)c(S(=O)(=O)O)cc2cc(S(=O)(=O)O)ccc12 | – | > 100
CN(C)/C=N\c1ccnc(=O)[nH]1 | – | > 100
CCN(Cc1cc(F)ccc1F)c1ccc(CO)c(Cl)c1 | 6.51 | 21.8
O=C1Nc2cc([N+](=O)[O-])c(Br)cc2C1=O | – | > 100
Cc1cccc2nc3c(=O)[nH]c(=O)nc-3n(C)c12 | – | > 100
CCOc1ccc(/C(C=O)=C(\Cl)c2ccc(OC)cc2)cc1 | – | > 100
CCOC(=O)C(C)Sc1nnc(COc2ccccc2OC)n1-c1ccccc1 (centres undefined) | – | > 100
NC(Cc1c[nH]c2cc([N+](=O)[O-])ccc12)C(=O)O (centres undefined) | – | > 100
CCCC1C(=O)Nc2cccc3ncn(c23)C1=O (centres undefined) | – | > 100
O=C(Sc1c(-c2ccccc2)c(=O)n(-c2ccccc2)c(=S)n1-c1ccccc1)c1cccs1 | – | > 100
O=CC(O)C(O)C(O)C1CNC(=S)O1 (centres undefined) | – | > 100
